Measured values: the supplement of paper PMC3334620
Over roughly 33,000 sequences, “E-score (-0.5 to 0.5)” has its median near -0.035; the highest 2% begin near 0.34. The list shows a part of the results.

What follows are sequences tested against T1, Mot3 (UniProt P54785) (assay: PBM E-score (8-mer binding enrichment) (E-score (-0.5 to 0.5)); higher = stronger / more preferred TF binding; most listed sequences are background and not binding sites). Conditions: protein concentration: 200 nM; construct: GST-full length.
T1 sequence: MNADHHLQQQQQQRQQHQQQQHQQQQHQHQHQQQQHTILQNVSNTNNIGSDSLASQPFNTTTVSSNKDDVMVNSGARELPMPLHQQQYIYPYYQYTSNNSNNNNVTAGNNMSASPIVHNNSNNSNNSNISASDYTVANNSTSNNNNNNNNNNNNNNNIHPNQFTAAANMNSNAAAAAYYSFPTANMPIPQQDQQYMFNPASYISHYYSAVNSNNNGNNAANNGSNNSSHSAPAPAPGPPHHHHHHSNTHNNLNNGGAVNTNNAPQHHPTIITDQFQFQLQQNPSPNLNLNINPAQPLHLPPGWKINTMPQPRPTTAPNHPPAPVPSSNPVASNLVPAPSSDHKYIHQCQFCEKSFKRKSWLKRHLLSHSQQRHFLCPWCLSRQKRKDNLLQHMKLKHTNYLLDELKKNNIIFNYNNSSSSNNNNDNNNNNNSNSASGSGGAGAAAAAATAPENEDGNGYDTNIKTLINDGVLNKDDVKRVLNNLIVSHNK
Summary of the method: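 Bound GST-tagged yeast transcription factors, applied at about 100-200 nM to double-stranded universal all-10-mer Agilent arrays, were detected with fluorescent anti-GST. Scans were normalised with masliner. A modified Wilcoxon-Mann-Whitney statistic, the E-score, was assigned to each ungapped eight-base word pooled with its reverse complement by the Universal PBM Analysis Suite.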

Sequence	PBM E-score
ATGCGCCC	-0.075
CAAGCTAC	0.0688
AGGGCTTG	0.103
CGGGATAG	-0.244
CTACGGAG	-0.217
GCCAGACC	-0.203
CGACCACA	-0.129
GACGCGCC	0.135
ACTCGCGA	-0.101
AGCAGCAG	-0.16
GCCCAGGC	0.0913
ACTGCAAT	-0.0323
ACCACTGG	-0.217
CGCCGAAG	-0.21
ACAACGAA	0.0333
ACAATTCC	-0.0244
ATCACGGA	-0.225
ACAGCGGT	-0.085
GGCGTTAA	0.149
GTCAACTA	0.0667
ACAGAGCC	-0.0166
CCGTGTCG	0.126
ACGAGTCT	-0.169
CTGGCAGA	-0.06
CACCAATC	-0.27

Sequence	PBM E-score
CACGTTAG	0.0636
CTACGTCA	0.0751
AATGACCC	-0.145
GAATCAGC	-0.171
ATATTGGG	-0.354
CCAAAGCG	-0.23
CATGTCAA	0.336
AGTTAACT	-0.0197
CAGGCCAA	0.0583
ATCTCAAC	0.0941
ACAGGGTG	-0.0508
CCCTATTA	-0.0975
AGAGCGCG	-0.168
AATGTCGG	-0.024
ACTCGATA	0.11
CATCGAAA	-0.148
TATCATCA	-0.0719
AATACGCG	0.354
CCCCTATA	-0.149
ACGAAATC	0.00888
AGTCGAAC	-0.157
AGCGATCG	-0.162
CAATCGCC	-0.0892
ATCAGCAC	0.118
AATTCAAT	0.0469

Sequence	PBM E-score
GAACATGC	0.202
CCCTCACC	-0.256
CGCAAATA	-0.00364
GATTTCAC	0.0353
GCCGCCAA	-0.242
GGGCGTCA	-0.178
GCTTTAAA	0.183
CCGCGTCG	-0.093
AAGAGGGG	-0.181
ATACATAT	0.359
AATGTAAG	0.201
ACGCAGGA	0.183
GATAATAC	0.0195
CAACACAA	0.254
ATAACATG	0.36
AGCGCTGC	-0.0677
ACCCAATA	-0.122
CCGACGCA	-0.00548
AACCGGAA	-0.109
TGGGGTAA	-0.0865
AATGGGCT	-0.0612
GCGCGGCC	-0.119
CATGCGCA	0.0605
ACGCCCTG	-0.0695
AACCCTAC	0.0104

Sequence	PBM E-score
ATTATACG	0.101
ATGGACCC	-0.103
ACTTGCTG	-0.0624
ACGGCCTC	-0.228
GTTTACAA	0.336
TCCGCCAA	-0.196
CTCATTAC	0.257
GGCATGCA	0.146
GGCTCGTA	0.112
AATAAACG	0.135
AGATATTC	-0.0722
ACATCTTG	-0.0667
AGCCTCTA	-0.195
CCCACCCC	-0.236
CAGAGTGC	0.0511
AACAGGGA	0.0867
CGAATGCA	0.0475
AGGAGCAC	-0.115
CATGTGTA	0.331
AGGCCAAG	-0.167
CAGCACCG	-0.204
CGGAGATA	-0.157
AGTCCAGA	-0.0476
AGGAGCTA	-0.0789
ATCCCGTA	0.0951

Sequence	PBM E-score
AAGGGATC	-0.0928
ATCGGGAC	-0.215
CGTCTCCA	-0.0393
ACAAATAC	0.182
CTACCCTA	-0.0964
TCCTCTAA	-0.0368
TAGGGTGA	-0.116
CCAGACAA	-0.209
TACTACGA	0.172
TAACCCGA	-0.0309
GACTGCAC	-0.0356
GGTCACAC	-0.131
ACGACTTA	-0.161
CCGAGTAA	0.0451
CTGAAGAC	-0.108
AAGTGCTG	-0.0462
TGATAGAA	0.0235
AATGTTGA	0.162
GATTCTTA	0.0989
AAAGGCTT	-0.0548
TCTCCAAA	-0.0729
CGCTATCC	-0.215
AGGTCTAC	-0.138
ACTCATTC	-0.0917
GTATATTA	0.25

Sequence	PBM E-score
AATTCTGG	0.107
CATCGAAG	-0.163
ATTCGTGC	0.212
GATTCGTA	0.028
AACAACCC	0.158
CTGTCCTA	-0.0816
CCCCTTAG	-0.265
ACTAGTCG	-0.0559
CGATTGCA	0.133
ACTCTAAG	-0.24
GCTGTTCC	-0.0657
ATGCTATG	0.19
AAGTTGGC	-0.142
ATCAGGGA	-0.198
GCCATCCA	-0.192
CGTGTGAC	0.0174
CCGGAGAA	-0.176
ATCTAGTA	0.113
GTCCGTAA	-0.0328
ACTTATTA	0.149
ACCAGTTC	-0.242
CATAAGCG	-0.0747
CCTTGGCG	-0.0871
CGAATAGA	-0.209
GCACTCGA	-0.0139

Sequence	PBM E-score
CTTCCACC	-0.0763
CCGGTACG	-0.199
AGGAGTAA	0.0475
GAGCTTAA	-0.0706
ATGACTGA	-0.11
GAACCGCA	-0.0522
AACCTAGA	-0.0927
AAGCAACG	0.0783
GTCTCTTA	0.0107
CGCATTCA	0.03
AATGCTAC	0.0517
CTAGTGGA	-0.158
ACGAAACT	-0.0505
GCGCCCAC	-0.347
AGAGGGCA	0.0326
ATAGCGAC	0.086
ACATGTCT	0.235
AAAGTGAG	-0.0909
CGCAGCGC	-0.103
ATTCGTCC	-0.0868
ATATACGA	0.14
ATGATCAA	0.0374
GGTCCTAC	-0.276
CCGGTTAC	0.00099
ATCAACCA	-0.172

Sequence	PBM E-score
CCGAGCCG	-0.323
AGCGCTGA	-0.188
CATGGCAG	-0.0253
GCTGATCA	-0.241
TATTGAAA	0.0575
ATTCTTGA	0.0207
ATTGCCCG	-0.207
ACGGGTCG	-0.0828
ATATCACC	0.0341
CGCGCCAA	-0.0132
TGAAGGAA	0.434
CCGTTCTA	0.17
CGCATCAG	-0.0383
CCGCAACA	0.132
ACGAAGCT	-0.0365
AGAGCCGC	-0.261
ACATTGGA	-0.0925
ATGTAGCC	-0.0965
ATTTAATG	0.166
CCAGCAAG	-0.162
GCCAACAA	-0.0223
GGAGGGGA	-0.285
TGCGGTAA	0.00116
CCTATGCC	-0.0577
CACGGCCA	-0.152

Sequence	PBM E-score
CGGTCACA	-0.245
AATAGTGT	0.026
ACAAAACG	0.159
GAGGTAGC	-0.202
GACTAACA	0.0937
CCTCTGTA	0.108
AGCAGACC	-0.181
AAGTCGTG	-0.0266
ACCGGTCC	-0.214
CGTGCTGA	0.0651
AGCCTTAC	-0.0126
TACCCCCA	-0.0647
CCGAGGGC	-0.22
GATCCTGA	-0.11
CAGCATCC	-0.162
GCCGGGAA	-0.195
AAACGACG	0.193
AACCTAGG	0.0596
CTGGAGGA	-0.0115
